Test results from the supplement of paper PMC4604168 (melanoma cell lines).
Some of the results follow. Most values come without repeats; read them as rough.

Experiments:
Test in all cases: cell count relative to DMSO control; melanoma cells; higher = more viable cells
Conditions in all cases: library dose: standard library concentration; 72 h
G361 = tested on: G361
IPC-298 = tested on: IPC-298
IST-MEL1 = tested on: IST-MEL1
LB2518-MEL = tested on: LB2518-MEL
LOXIMVI = tested on: LOXIMVI
MEL-HO = tested on: MEL-HO
MZ2-MEL = tested on: MZ2-MEL
MeWo = tested on: MeWo
RPMI7951 = tested on: RPMI7951
RVH-421 = tested on: RVH-421
SkMel28 = tested on: SkMel28
SkMel2 = tested on: SkMel2
SkMel30 = tested on: SkMel30
SkMel5 = tested on: SkMel5
UACC257 = tested on: UACC257
UACC62 = tested on: UACC62
WM115 = tested on: WM115
WM1716 = tested on: WM1716
WM3526 = tested on: WM3526
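Further: cells treated in 1,536-well plates, then fixed and DAPI-stained, with nuclei counted from automated high-throughput microscope images.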

Row | Compound | cell count (G361) | cell count (IPC-298) | cell count (IST-MEL1) | cell count (LB2518-MEL) | cell count (LOXIMVI) | cell count (MEL-HO) | cell count (MZ2-MEL) | cell count (MeWo) | cell count (RPMI7951) | cell count (RVH-421) | cell count (SkMel28) | cell count (SkMel2) | cell count (SkMel30) | cell count (SkMel5) | cell count (UACC257) | cell count (UACC62) | cell count (WM115) | cell count (WM1716) | cell count (WM3526)
1 | CN1CCN(c2ccc3nc(-c4c(N)c5c(F)cccc5[nH]c4=O)[nH]c3c2)CC1 [Dovitinib] + O=C(Nc1ccccc1)c1cc([N+](=O)[O-])ccc1Cl [GW9662] (first compound 0.5 µM, partner dose 10 µM) | 58% | 83.5% | 82.4% | 56.9% | 318% | 76.5% | 61.6% | 43% | 86.3% | 78.9% | 38% | 63% | 88.1% | 51.9% | 91% | 69.9% | 55.6% | 80.2% | 80.6%
2 | C[C@@H](Oc1cc(-c2cnn(C3CCNCC3)c2)cnc1N)c1c(Cl)ccc(F)c1Cl [Crizotinib] + COC(=O)c1sccc1S(=O)(=O)Nc1ccc(Nc2ccccc2)cc1OC [GSK0660] (first compound 1 µM, partner dose 5 µM) | 82.4% | 76.7% | 91.5% | 79% | 100% | 81.3% | 71% | 71.7% | 81.6% | 101% | 56% | 79.4% | 92.2% | 56.2% | 75.8% | 78.8% | 74.1% | 84.6% | 78.1%
3 | C=CCNC1=C2C[C@@H](C)C[C@H](OC)[C@H](O)[C@@H](C)/C=C(\C)[C@H](OC(N)=O)[C@@H](OC)/C=C\C=C(/C)C(=O)NC(=CC1=O)C2=O [Tanespimycin] + Cn1cc(/C=C2\C(=O)Nc3cccnc32)c2ccccc21 [GW441756] (first compound 0.01 µM, partner dose 2 µM) | 78.8% | 85.8% | 94% | 104% | 101% | 97.6% | 89.3% | 90.6% | 41.5% | 102% | 49.4% | 99.9% | 95.7% | 63.2% | 88.3% | 54.4% | 24% | 90.3% | 87.2%
4 | CS(=O)(=O)CCNCc1ccc(-c2ccc3ncnc(Nc4ccc(OCc5cccc(F)c5)c(Cl)c4)c3c2)o1 [lapatinib] + Cn1cc(/C=C2\C(=O)Nc3cccnc32)c2ccccc21 [GW441756] (first compound 4 µM, partner dose 2 µM) | 74% | 77.6% | 96.9% | 103% | 101% | 67.7% | 59.2% | 73.4% | 55.6% | 90% | 59.4% | 99.1% | 85.5% | 54.1% | 95.4% | 50.3% | 89.9% | 77.7% | 79.7%
5 | CNC(=O)c1cc(Oc2ccc(NC(=O)Nc3ccc(Cl)c(C(F)(F)F)c3)cc2)ccn1 [sorafenib] + CCCCCCCCCCCC1=C(O)C(=O)C=C(O)C1=O [Embelin] (first compound 2 µM, partner dose 6 µM) | 66.2% | 63.3% | 62.4% | 79.8% | 116% | 64.8% | 96.7% | 91% | 66.6% | 36.9% | 114% | 96.2% | 107% | 72.1% | 83% | 114% | 103% | 45.3% | 89.2%
6 | C=CCNC1=C2C[C@@H](C)C[C@H](OC)[C@H](O)[C@@H](C)/C=C(\C)[C@H](OC(N)=O)[C@@H](OC)/C=C\C=C(/C)C(=O)NC(=CC1=O)C2=O [Tanespimycin] + Cc1cc([N+](=O)[O-])ccc1NS(=O)(=O)c1cc(Cl)ccc1Cl [FH535] (first compound 0.01 µM, partner dose 5 µM) | 24.1% | 49.7% | 53.3% | 66% | 83.8% | 52.8% | 78.1% | 75.8% | 29.7% | 68% | 68.6% | 81.7% | 92.7% | 48.3% | 81.9% | 64.8% | 39.4% | 70.4% | 78.7%
7 | CN1CCN(c2ccc3nc(-c4c(N)c5c(F)cccc5[nH]c4=O)[nH]c3c2)CC1 [Dovitinib] + COc1cc2ncnc(Nc3ccc(Oc4ccccc4)cc3)c2cc1OC [SrcI1] (first compound 0.5 µM, partner dose 10 µM) | 12.2% | 56.6% | 70.7% | 63.1% | 55.6% | 76.7% | 56.8% | 50.9% | 29.5% | 131% | 39.6% | 63.6% | 58.1% | 59.1% | 69.9% | 45.1% | 57.5% | 66.3% | 59.5%
8 | C=CCNC1=C2C[C@@H](C)C[C@H](OC)[C@H](O)[C@@H](C)/C=C(\C)[C@H](OC(N)=O)[C@@H](OC)/C=C\C=C(/C)C(=O)NC(=CC1=O)C2=O [Tanespimycin] + COc1cc(N2CCC(N3CCN(C)CC3)CC2)ccc1Nc1ncc(Cl)c(Nc2ccccc2S(=O)(=O)C(C)C)n1 [NVP-TAE684] (first compound 0.01 µM, partner dose 0.4 µM) | 64.5% | 86.9% | 64.5% | 80.8% | 75.8% | 79% | 86.9% | 44.2% | 19.7% | 24.6% | 60% | 68.8% | 108% | 58.1% | 87.8% | 55.9% | 16.9% | 68.3% | 60%
9 | C=CCNC1=C2C[C@@H](C)C[C@H](OC)[C@H](O)[C@@H](C)/C=C(\C)[C@H](OC(N)=O)[C@@H](OC)/C=C\C=C(/C)C(=O)NC(=CC1=O)C2=O [Tanespimycin] + Oc1cc(-c2nc(-c3ccccc3)[nH]c2-c2ccncc2)ccc1Cl [L779450] (first compound 0.01 µM, partner dose 1 µM) | 48.1% | 72.5% | 74.2% | 77% | 125% | 77.9% | 90.2% | 59% | 21.1% | 79.7% | 41.5% | 32.8% | 94.9% | 64.1% | 80.3% | 56.7% | 16% | 69.2% | 61%
10 | C[C@@H](Oc1cc(-c2cnn(C3CCNCC3)c2)cnc1N)c1c(Cl)ccc(F)c1Cl [Crizotinib] + O=c1cc(-c2cccc3c2Sc2ccccc2S3)oc(N2CCOCC2)c1 [KU55933] (first compound 1 µM, partner dose 5 µM) | 86.2% | 101% | 87.9% | 84.7% | 120% | 89.9% | 95.9% | 76.7% | 73.7% | 106% | 64.4% | 76.5% | 129% | 77.9% | 95.6% | 102% | 69.2% | 75.3% | 90.7%
11 | C[C@@H](Oc1cc(-c2cnn(C3CCNCC3)c2)cnc1N)c1c(Cl)ccc(F)c1Cl [Crizotinib] + O=C1NC(=O)/C(=C/c2ccc(-c3ccc(F)cc3O)o2)S1 [AS252424] (first compound 1 µM, partner dose 5 µM) | 87.2% | 77.7% | 93.6% | 79.7% | 112% | 82.2% | 85.1% | 64.7% | 102% | 81.1% | 68% | 66.9% | 87.6% | 70.5% | 89.2% | 117% | 59.3% | 82.7% | 75.3%
12 | C=CCNC1=C2C[C@@H](C)C[C@H](OC)[C@H](O)[C@@H](C)/C=C(\C)[C@H](OC(N)=O)[C@@H](OC)/C=C\C=C(/C)C(=O)NC(=CC1=O)C2=O [Tanespimycin] + COc1cc2ncnc(Nc3ccc(Oc4ccccc4)cc3)c2cc1OC [SrcI1] (first compound 0.01 µM, partner dose 10 µM) | 50% | 79.4% | 75.1% | 92.9% | 64.9% | 74.6% | 86.8% | 56.3% | 17.8% | 88.6% | 61.1% | 111% | 89% | 68.5% | 89.5% | 44.8% | 24.6% | 78% | 59.5%
13 | CNC(=O)c1cc(Oc2ccc(NC(=O)Nc3ccc(Cl)c(C(F)(F)F)c3)cc2)ccn1 [sorafenib] + N#Cc1c(O)c2c(-c3ccc(-c4ccccc4O)cc3)csc2[nH]c1=O [A769662] (first compound 2 µM, partner dose 10 µM) | 95.1% | 93.6% | 85.7% | 96.2% | 102% | 81.9% | 109% | 80.6% | 79.1% | 79.4% | 88.1% | 95.7% | 125% | 98.6% | 85.1% | 86.8% | 72.9% | 75.9% | 81.9%
14 | C=CCNC1=C2C[C@@H](C)C[C@H](OC)[C@H](O)[C@@H](C)/C=C(\C)[C@H](OC(N)=O)[C@@H](OC)/C=C\C=C(/C)C(=O)NC(=CC1=O)C2=O [Tanespimycin] + COc1ccc2c(c1)CCC1C2CCC2(C)C(NCCCCCCN3C(=O)C=CC3=O)CCC12 [U73122] (first compound 0.01 µM, partner dose 2 µM) | 91.9% | 106% | 104% | 91.4% | 112% | 97.1% | 91.4% | 64% | 21.3% | 80.2% | 83.8% | 74.7% | 111% | 94.8% | 78.1% | 66.1% | 29.7% | 85% | 105%
15 | CS(=O)(=O)CCNCc1ccc(-c2ccc3ncnc(Nc4ccc(OCc5cccc(F)c5)c(Cl)c4)c3c2)o1 [lapatinib] + O=C(O)C(=O)Nc1sc2c(c1C(=O)O)CCNC2 [TCS401] (first compound 4 µM, partner dose 8.33333 µM) | 71% | 94% | 114% | 109% | 105% | 92.7% | 91.4% | 84.7% | 75.8% | 114% | 98% | 91.5% | 107% | 67.8% | 87.5% | 89.4% | 96.7% | 100% | 79.8%
16 | CN1CCN(c2ccc3nc(-c4c(N)c5c(F)cccc5[nH]c4=O)[nH]c3c2)CC1 [Dovitinib] + Oc1nc(-c2ccc(C(F)(F)F)cc2)nc2c1CSCC2 [XAV939] (first compound 0.5 µM, partner dose 10 µM) | 53% | 79.8% | 91.3% | 59.3% | 103% | 73.4% | 62.8% | 56.2% | 67.6% | 121% | 59.2% | 65.8% | 81.7% | 61.3% | 64.1% | 100% | 86.1% | 65.6% | 81.8%
17 | C[C@@H](Oc1cc(-c2cnn(C3CCNCC3)c2)cnc1N)c1c(Cl)ccc(F)c1Cl [Crizotinib] + O=S(=O)(c1ccccc1)N(CC(F)(F)F)c1ccc(C(O)(C(F)(F)F)C(F)(F)F)cc1 [T0901317] (first compound 1 µM, partner dose 7 µM) | 65.8% | 75.5% | 86% | 75% | 217% | 78.7% | 91.8% | 64.4% | 75.5% | 87.4% | 51.2% | 80.3% | 71.2% | 60.6% | 66.7% | 60.5% | 43.1% | 65.7% | 68.5%
